The other results are listed elsewhere or left out.
What was measured:
Assay in all cases: glycan array binding signal (z-score within array); higher = stronger binding
Conditions in all cases: glycan notation: IUPAC condensed, linker removed
[1] = target: Fuc(a1-3)[Gal(b1-4)]GlcNAc(b1-3)Gal(b1-4)[Fuc(a1-3)]GlcNAc
How it was run: (§1)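 Glycan array data were curated from 3228 arrays in the Consortium for Functional Glycomics database and kept only where the protein sequence was available. Glycan names were converted to IUPAC-condensed notation, and columns mapping to the same glycan were averaged. The binding signal is a within-array Z-score, averaged across arrays of the same protein sequence at different concentrations or buffers and across linkers. Negative Z-scores can be read as non-binding.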

[2] = target: Fuc(a1-3)[Gal(b1-4)]GlcNAc(b1-3)Gal(b1-4)[Fuc(a1-3)]GlcNAc(b1-3)Gal(b1-4)[Fuc(a1-3)]GlcNAc
How it was run: as §1

[3] = target: Fuc(a1-3)[Gal(b1-4)]GlcNAc(b1-3)GalNAc
How it was run: as §1

[4] = target: Fuc(a1-3)[Gal(b1-4)]GlcNAc(b1-6)GalNAc
How it was run: as §1

[5] = target: Fuc(a1-3)[Gal(b1-4)]GlcNAc(b1-6)[Gal(b1-3)GlcNAc(b1-3)]Gal(b1-4)Glc
How it was run: as §1

[6] = target: Fuc(a1-3)[Gal(b1-4)]GlcNAc6S
How it was run: as §1

[7] = target: Fuc(a1-3)[Gal3S(b1-4)]Glc
How it was run: as §1

[8] = target: Fuc(a1-3)[Gal3S(b1-4)]GlcNAc
How it was run: as §1

[9] = target: Fuc(a1-3)[Gal3S(b1-4)]GlcNAc6S
How it was run: as §1

[10] = target: Fuc(a1-3)[GalNAc(b1-4)]GlcNAc
How it was run: as §1

[11] = target: Fuc(a1-3)[GalNAc(b1-4)]GlcNAc6S
How it was run: as §1

Fuc(a1-4)GlcNAc = target: Fuc(a1-4)GlcNAc
How it was run: as §1

Fuc(b1-3)GlcNAc = target: Fuc(b1-3)GlcNAc
How it was run: as §1

Gal(a1-2)Gal = target: Gal(a1-2)Gal
How it was run: as §1

Gal(a1-3)Gal = target: Gal(a1-3)Gal
How it was run: as §1

Gal(a1-3)Gal(b1-3)GlcNAc = target: Gal(a1-3)Gal(b1-3)GlcNAc
How it was run: as §1

[12] = target: Gal(a1-3)Gal(b1-3)GlcNAc(b1-2)Man
How it was run: as §1

[13] = target: Gal(a1-3)Gal(b1-3)GlcNAc(b1-2)Man(a1-3)[Gal(a1-3)Gal(b1-3)GlcNAc(b1-2)Man(a1-6)]Man(b1-4)GlcNAc(b1-4)GlcNAc
How it was run: as §1

[14] = target: Gal(a1-3)Gal(b1-3)GlcNAc(b1-3)GalNAc
How it was run: as §1

[15] = target: Gal(a1-3)Gal(b1-3)GlcNAc(b1-6)GalNAc
How it was run: as §1

[16] = target: Gal(a1-3)Gal(b1-3)[Fuc(a1-4)]GlcNAc(b1-2)Man(a1-3)[Gal(a1-3)Gal(b1-3)[Fuc(a1-4)]GlcNAc(b1-2)Man(a1-6)]Man(b1-4)GlcNAc(b1-4)GlcNAc
How it was run: as §1

Gal(a1-3)Gal(b1-4)Glc = target: Gal(a1-3)Gal(b1-4)Glc
How it was run: as §1

Gal(a1-3)Gal(b1-4)GlcNAc = target: Gal(a1-3)Gal(b1-4)GlcNAc
How it was run: as §1

[17] = target: Gal(a1-3)Gal(b1-4)GlcNAc(b1-2)Man
How it was run: as §1

[18] = target: Gal(a1-3)Gal(b1-4)GlcNAc(b1-2)Man(a1-3)[Gal(a1-3)Gal(b1-4)GlcNAc(b1-2)Man(a1-6)]Man(b1-4)GlcNAc(b1-4)GlcNAc
How it was run: as §1

[19] = target: Gal(a1-3)Gal(b1-4)GlcNAc(b1-3)GalNAc
How it was run: as §1

[20] = target: Gal(a1-3)Gal(b1-4)GlcNAc(b1-6)GalNAc
How it was run: as §1

[21] = target: Gal(a1-3)Gal(b1-4)[Fuc(a1-3)]GlcNAc
How it was run: as §1

[22] = target: Gal(a1-3)Gal(b1-4)[Fuc(a1-3)]GlcNAc(b1-2)Man(a1-3)[Gal(a1-3)Gal(b1-4)[Fuc(a1-3)]GlcNAc(b1-2)Man(a1-6)]Man(b1-4)GlcNAc(b1-4)GlcNAc
How it was run: as §1

Gal(a1-3)GalNAc = target: Gal(a1-3)GalNAc
How it was run: as §1

[23] = target: Gal(a1-3)[Gal(a1-4)]Gal(b1-4)GlcNAc
How it was run: as §1

[24] = target: Gal(a1-4)Gal(b1-3)GlcNAc(b1-2)Man(a1-3)[Gal(a1-4)Gal(b1-3)GlcNAc(b1-2)Man(a1-6)]Man(b1-4)GlcNAc(b1-4)GlcNAc
How it was run: as §1

Gal(a1-4)Gal(b1-4)Glc = target: Gal(a1-4)Gal(b1-4)Glc
How it was run: as §1

Gal(a1-4)Gal(b1-4)GlcNAc = target: Gal(a1-4)Gal(b1-4)GlcNAc
How it was run: as §1

[25] = target: Gal(a1-4)Gal(b1-4)GlcNAc(b1-2)Man(a1-3)[Gal(a1-4)Gal(b1-4)GlcNAc(b1-2)Man(a1-6)]Man(b1-4)GlcNAc(b1-4)GlcNAc
How it was run: as §1

[26] = target: Gal(a1-4)Gal(b1-4)GlcNAc(b1-3)Gal(b1-4)Glc
How it was run: as §1

Gal(a1-4)GlcNAc = target: Gal(a1-4)GlcNAc
How it was run: as §1

Gal(a1-6)Glc = target: Gal(a1-6)Glc
How it was run: as §1

B1: PV12658A-bvu-496-32-496 (Bacteroides vulgatus) (protein)
chain: DLDGAITTPAAVELALNGIYYSLPGNGFNVIFPTVSGSFKAGTMWRQEIVSAGNAVYYSERMLPTLSFSDATEWDADYAVIKNANFLETACNRMSDGEFSGNRRAEVLGEIAYLRALAYFNILVRYCEFWDMNSEYGVVMRNEAPSVSNALKARSSVADSYQYILDQLEIAIEKAPDWKKLSQASKEAAKALKARVLLYAGKYTEAVAAVNDAIDTNSPLPEANYGDVFDKFSTTKEILFARVFDQKDATNTSTRQQCYGNSPTKKQGYWGPTNEYVELVGDDPRADAIFSKVDSLMDSRSSAVAYNLKSVKKLLNDANDMPVIFSRVSELYLIKAEALYRSGASISEAYAPIRKLRERAGAEIILPANNEELETAIFNEWMLELSFENWHEWFAMIRFAGYTEKPDFTRLLALNKTLREALEKEYEKSEAQGDNYYQRIIDRRIDAIPSSEISSNLECKQNPGY
glycan array binding signal (z-score) [1]: -0.25
glycan array binding signal (z-score) [2]: -0.323
glycan array binding signal (z-score) [3]: -0.278
glycan array binding signal (z-score) [4]: -0.147
glycan array binding signal (z-score) [5]: -0.544
glycan array binding signal (z-score) [6]: 0.065
glycan array binding signal (z-score) [7]: -0.264
glycan array binding signal (z-score) [8]: -0.153
glycan array binding signal (z-score) [9]: -0.244
glycan array binding signal (z-score) [10]: 0.311
glycan array binding signal (z-score) [11]: -0.267
glycan array binding signal (z-score) (Fuc(a1-4)GlcNAc): -0.159
glycan array binding signal (z-score) (Fuc(b1-3)GlcNAc): -0.21
glycan array binding signal (z-score) (Gal(a1-2)Gal): -0.348
glycan array binding signal (z-score) (Gal(a1-3)Gal): -0.173
glycan array binding signal (z-score) (Gal(a1-3)Gal(b1-3)GlcNAc): 3.81
glycan array binding signal (z-score) [12]: -0.441
glycan array binding signal (z-score) [13]: -0.218
glycan array binding signal (z-score) [14]: -0.252
glycan array binding signal (z-score) [15]: -0.262
glycan array binding signal (z-score) [16]: -0.342
glycan array binding signal (z-score) (Gal(a1-3)Gal(b1-4)Glc): -0.267
glycan array binding signal (z-score) (Gal(a1-3)Gal(b1-4)GlcNAc): -0.472
glycan array binding signal (z-score) [17]: -0.131
glycan array binding signal (z-score) [18]: 4.55
glycan array binding signal (z-score) [19]: 0.476
glycan array binding signal (z-score) [20]: -0.133
glycan array binding signal (z-score) [21]: -0.336
glycan array binding signal (z-score) [22]: 0.883
glycan array binding signal (z-score) (Gal(a1-3)GalNAc): -0.281
glycan array binding signal (z-score) [23]: 1.73
glycan array binding signal (z-score) [24]: 0.354
glycan array binding signal (z-score) (Gal(a1-4)Gal(b1-4)Glc): 0.596
glycan array binding signal (z-score) (Gal(a1-4)Gal(b1-4)GlcNAc): 0.017
glycan array binding signal (z-score) [25]: 7.57
glycan array binding signal (z-score) [26]: -0.309
glycan array binding signal (z-score) (Gal(a1-4)GlcNAc): -0.462
glycan array binding signal (z-score) (Gal(a1-6)Glc): -0.247

— the supplement of paper PMC8728848
